Results: patent publication US20090258005A1 (TRUBION PHARMACEUTICALS, published 2009)

T1: CD20 on Ramos cells
T1 construct: also called Ramos (Her2-/CD20+ control)
T1 chain: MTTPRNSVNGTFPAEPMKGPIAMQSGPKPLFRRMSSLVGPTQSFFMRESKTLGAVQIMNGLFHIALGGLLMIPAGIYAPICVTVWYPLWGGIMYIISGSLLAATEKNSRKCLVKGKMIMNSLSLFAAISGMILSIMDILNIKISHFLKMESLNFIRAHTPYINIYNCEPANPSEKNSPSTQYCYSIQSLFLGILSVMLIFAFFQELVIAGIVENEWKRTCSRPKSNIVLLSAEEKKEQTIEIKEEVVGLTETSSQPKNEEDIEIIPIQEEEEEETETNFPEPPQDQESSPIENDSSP

B1: HER067 SMIP (Fc fusion)
chain: QVQLQQSGAEVKKPGSSVKVSCKASGGTISNYAISWVRLAPGQGLEWMGSIVPLHGTTNFAQKFQGRVTITADESTSTSYMEVNVLTYEDTAMYYCASLNWGYWGRGTLVTVSSGGGGSGGGGSGGGGSALNFMLTQPHSVSESPGKTVTISCTGSSGSIASNYVQWYQQRPDSAPTTVIYEDNRRSSGVPDRFSGSIDSSSNSASLSISGLKTEDEADYYCQSYDSSGHVVFGGGTKLTVLGDVR[human IgG1 Fc with changes not shown]
notes: HER067 is produced in CHO cells; also called Her033/Her067
B2: HER030 SMIP (Fc fusion)
chain: EVQLVQSGGGLVRPGGSLRLSCAASGFSFSDYYMTWIRQIPGKGLEWVAVIWNDGSDRYYADSVKGRFTISRDNSKNTLFLQMSSLRDEDTALYYCVRGGPTASSGFDYWGRGTLVTVSSGGGGSGGGGSGGGGSSELTQPASVSGSPGQSITISCTGTSSDVGGYNYVSWYLQHPGKAPKLMIYEGSKRPSGVSNRFSGSKSGNTASLTISGLQAEDEADYYCSSYTTRSTRVFGGGTKLTVLGDVR[human IgG1 Fc with changes not shown]
notes: SMIP: VH - linker - VL - SCCP hinge - Fc

Legend:
CD20 on Ramos cells = target: T1, CD20 on Ramos cells; experiment: flow cytometry (X geo mean FL1-H), Ramos cells
[1] = target: T2, Her008P, full-length extracellular domain (ECD) of Her2 expressed with a mIgG2a Fc tail (human; murine, UniProt P04626 in part); experiment: BIACORE T100, binder captured by anti-human Fc, Her2 protein as analyte, 25 C
T2 construct: also called SIIS; SIIS (Dimer); not shown: murine IgG2a Fc tail

[2] = target: T3, Her018P, Her2 ECD with a deletion in the CR2 (Domain IV) region expressed with a mIgG2a Fc tail (human; murine, UniProt P04626 in part); experiment: as above
T3 construct: Shares the name HER018 with the trastuzumab SMIP; also called 1.8 (Dimer); dimeric HER018; not shown: murine IgG2a Fc tail (C-terminal dimerising carrier) and any junction residues

Binder	binding result (CD20 on Ramos cells)	Kd [1] [nM]	Kd [2] [nM]
B1	no binding (tested: 200 nM)	–	–
B2	–	35.6	27.6
